Experimental data taken from the supplement of paper PMC4967469.
The IC50 comes from the fitted curve, where viability falls to half of the control; a limit (>, <) means that the fit lies beyond the doses tested. The AUC spans the tested range (256-fold, ending at the top dose) of the same fit: 1 means no effect, lower means more sensitive. For some of these results: Where the top dose is marked as inferred, it comes from the curve model; the source does not state it. For some of these results: Where an entry number is given, a second screen of the drug exists; the two often differ.

How the values were obtained:
Experiment in all cases: Viability of human cancer cell lines after 72 h of drug (GDSC screen)
CP466722 = compound: COc1cc2ncnc(-n3nc(-c4ccccn4)nc3N)c2cc1OC [CP466722]; settings: top dose 16 µM; top dose inferred
Procedure: (§1)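 Human cancer cell lines in 384-well plates, medium with 10% serum, drug for 72 h over a 256-fold dose range (nine 2-fold or five 4-fold steps up to the top dose). Adherent lines were fixed and stained with the nucleic acid dye Syto60, suspension lines read with resazurin; signal relative to control wells, capped at 0 and 100%. One two-parameter sigmoid per drug and line, fitted in a mixed model over all curves with the slope shared within a line.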

ABT-888 = compound: C[C@]1(c2nc3c(C(N)=O)cccc3[nH]2)CCCN1 [ABT-888]; settings: top dose 5 µM; top dose inferred
Procedure: as §1

QL-X-138 = compound: C=CC(=O)Nc1cc(-n2c(=O)ccc3cnc4ccc(-c5cn[nH]c5)cc4c32)ccc1C [QL-X-138]; settings: top dose 10.24 µM; top dose inferred
Procedure: as §1

GSK269962A = compound: CCn1c(-c2nonc2N)nc2cnc(Oc3cccc(NC(=O)c4ccc(OCCN5CCOCC5)cc4)c3)cc21 [GSK269962A]; settings: top dose inferred
Procedure: as §1

Thapsigargin = compound: C/C=C(/C)C(=O)O[C@H]1C(C)=C2[C@H]([C@@H]1OC(=O)CCCCCCC)[C@@](C)(OC(C)=O)C[C@H](OC(=O)CCC)[C@@]1(O)[C@H]2OC(=O)[C@@]1(C)O [Thapsigargin]; settings: top dose 0.512 µM; top dose inferred
Procedure: as §1

CHIR-99021 = compound: Cc1cnc(-c2cnc(NCCNc3ccc(C#N)cn3)nc2-c2ccc(Cl)cc2Cl)[nH]1 [CHIR-99021]
Procedure: as §1

CMK = compound: Cc1ccc(-c2c(C(=O)CCl)n(CCCO)c3ncnc(N)c23)cc1 [CMK]; settings: top dose 4 µM; top dose inferred
Procedure: as §1

MPS-1-IN-1 = compound: COc1cc(N2CCC(O)CC2)ccc1Nc1cc(Nc2ccccc2S(=O)(=O)C(C)C)c2cc[nH]c2n1 [MPS-1-IN-1]; settings: top dose 20 µM; top dose inferred
Procedure: as §1

Zibotentan = compound: COc1nc(C)cnc1NS(=O)(=O)c1cccnc1-c1ccc(-c2nnco2)cc1 [Zibotentan]; settings: top dose 20 µM; top dose inferred
Procedure: as §1

ABT-869 = compound: Cc1ccc(F)c(NC(=O)Nc2ccc(-c3cccc4[nH]nc(N)c34)cc2)c1 [ABT-869]; settings: top dose 1.024 µM; top dose inferred
Procedure: as §1

(5Z)-7-Oxozeaenol = compound: COc1cc(O)c2c(c1)/C=C/C[C@H](O)[C@H](O)C(=O)/C=C\C[C@H](C)OC2=O [(5Z)-7-Oxozeaenol]; settings: top dose 10 µM; top dose inferred
Procedure: as §1

KU-55933 = compound: O=c1cc(-c2cccc3c2Sc2ccccc2S3)oc(N2CCOCC2)c1 [KU-55933]; settings: top dose 10 µM
Procedure: as §1

[1] = top dose 2.5 µM, screen: GDSC drug entry 127
[2] = top dose 5 µM, screen: GDSC drug entry 1192
[3] = top dose 2.56 µM, screen: GDSC drug entry 154
[4] = top dose 10 µM, screen: GDSC drug entry 1241, top dose inferred

Cell Line | AUC (CP466722) | IC50 (CP466722) [µM] | AUC (ABT-888) | IC50 (ABT-888) [µM] | AUC (QL-X-138) | IC50 (QL-X-138) [µM] | AUC (GSK269962A; [1]) | IC50 (GSK269962A; [1]) [µM] | AUC (GSK269962A; [2]) | IC50 (GSK269962A; [2]) [µM] | AUC (Thapsigargin) | IC50 (Thapsigargin) [µM] | AUC (CHIR-99021; [3]) | IC50 (CHIR-99021; [3]) [µM] | AUC (CHIR-99021; [4]) | IC50 (CHIR-99021; [4]) [µM] | AUC (CMK) | IC50 (CMK) [µM] | AUC (MPS-1-IN-1) | IC50 (MPS-1-IN-1) [µM] | AUC (Zibotentan) | IC50 (Zibotentan) [µM] | AUC (ABT-869) | IC50 (ABT-869) [µM] | AUC ((5Z)-7-Oxozeaenol) | IC50 ((5Z)-7-Oxozeaenol) [µM] | AUC (KU-55933) | IC50 (KU-55933) [µM]
8-MG-BA (glioma, adherent) | 0.763 | 5.41 | 0.978 | > 5 | 0.567 | 0.965 | 0.955 | > 2.5 | 0.719 | 1.25 | 0.181 | 0.00383 | 0.972 | > 2.56 | 0.928 | > 10 | 0.873 | 3.45 | 0.906 | > 20 | 0.987 | > 20 | 0.974 | > 1.02 | 0.664 | 1.73 | 0.954 | > 10
697 (lymphoblastic leukaemia, suspension) | 0.35 | 0.421 | 0.988 | > 5 | 0.341 | 0.257 | 0.667 | 0.408 | 0.511 | 0.333 | 0.063 | < 0.002 | 0.982 | > 2.56 | 0.861 | 5.88 | 0.525 | 0.288 | 0.82 | 8.66 | 0.99 | > 20 | 0.97 | > 1.02 | 0.578 | 0.977 | 0.883 | 7.05
ALL-SIL (T-cell leukaemia, suspension) | 0.453 | 0.76 | 0.989 | > 5 | 0.493 | 0.614 | 0.776 | 0.861 | 0.81 | 2.2 | 0.087 | < 0.002 | 0.958 | > 2.56 | 0.869 | 7.15 | 0.827 | 2 | 0.756 | 5.99 | 0.932 | > 20 | 0.944 | > 1.02 | 0.629 | 1.34 | 0.989 | > 10
ATN-1 (T-cell lymphoblastic leukaemia, suspension) | 0.579 | 1.62 | 0.949 | > 5 | 0.548 | 0.855 | 0.955 | > 2.5 | 0.905 | > 5 | 0.527 | 0.0376 | 0.98 | > 2.56 | 0.952 | > 10 | 0.962 | > 4 | 0.795 | 8.6 | 0.986 | > 20 | 0.975 | > 1.02 | 0.748 | 3.03 | 0.514 | 0.679
BB30-HNC (head and neck, adherent) | 0.808 | 8.07 | 0.946 | > 5 | 0.765 | 3.68 | 0.939 | > 2.5 |  |  | 0.24 | 0.00578 | 0.978 | > 2.56 |  |  | 0.783 | 1.64 | 0.808 | 10.1 | 0.985 | > 20 | 0.98 | > 1.02 |  |  | 0.908 | > 10
BB65-RCC (kidney, adherent) | 0.903 | > 16 | 0.946 | > 5 | 0.819 | 7.01 | 0.956 | > 2.5 | 0.868 | > 5 | 0.24 | 0.00495 | 0.903 | > 2.56 | 0.832 | 7.78 | 0.855 | 3.97 | 0.98 | > 20 | 0.983 | > 20 | 0.983 | > 1.02 | 0.694 | 2.39 |  | 
BL-41 (Burkitt lymphoma, suspension) | 0.415 | 0.621 | 0.994 | > 5 | 0.228 | 0.134 | 0.932 | > 2.5 | 0.844 | 2.4 | 0.075 | 0.00213 | 0.89 | 1.73 | 0.818 | 4.01 | 0.785 | 1.3 | 0.796 | 6.96 | 0.994 | > 20 | 0.994 | > 1.02 | 0.622 | 1.24 | 0.934 | > 10
C2BBe1 (large intestine, adherent) | 0.906 | > 16 | 0.979 | > 5 | 0.744 | 3.57 | 0.986 | > 2.5 | 0.906 | > 5 | 0.3 | 0.00803 | 0.984 | > 2.56 | 0.948 | > 10 | 0.847 | 3.56 | 0.881 | > 20 | 0.952 | > 20 | 0.984 | > 1.02 | 0.781 | 4.73 | 0.962 | > 10
CCRF-CEM (lymphoblastic leukaemia, suspension) | 0.639 | 2.26 | 0.976 | > 5 | 0.409 | 0.376 | 0.923 | > 2.5 | 0.766 | 1.56 | 0.504 | 0.0328 | 0.959 | > 2.56 | 0.965 | > 10 | 0.782 | 1.39 | 0.825 | 9.52 | 0.986 | > 20 | 0.991 | > 1.02 | 0.741 | 2.65 | 0.883 | 7.77
